The test system of this series is ATP. The experiment in a line: switch fluorescence ratio, 500 uM ATP over buffer (Cy3 cluster intensity, sum of 5 cycles each) (fold (ratio)); higher = stronger signal-on switching upon ATP binding; sequences stand for … in TCGTCGGCAGCGTCAGATGTGTATAAGAGACAGTTTTTTTTTTTTTTTTTTTTTTTTT…TC. The conditions noted are these: aptamer strand: ATP DNA aptamer (quencher-CACCTGGGGGAGTATTGCGGAGGAAGG + anchor), 100 nM annealed; ATP concentration: 500 uM; one replicate. The procedure, abridged:
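Values give the fluorescence ratio for each switch-domain sequence, averaged from per-cluster ratios of summed target-cycle to summed buffer-cycle Cy3 intensity. The Cy3-labelled switching-strand clusters sat on a modified Illumina MiSeq flow-cell, were annealed to 100 nM quencher-labelled ATP aptamer, and were imaged in selection buffer, then after 15 min with 500 uM ATP at 22 °C. Five cycles ran with NaOH stripping and re-annealing between them, and clusters outside 100-1000 RFU were excluded.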

Values marked as one replicate rest on one cluster of the flow cell; about a third of the high ones do not repeat.
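Further: ATP exposure 15 min at 22 °C before imaging.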

GACATGATTT: the switch fluorescence ratio is 0.981.

Turning to TAATACGGGG, the switch fluorescence ratio amounted to 0.986.

On to GTATAAGCG, for which the switch fluorescence ratio came to 0.936.

Regarding CATTTTAGA, the switch fluorescence ratio came to 1.01.

Consider GGTGCGCAGA, for which the switch fluorescence ratio was 0.992.

With GCAGAGTTCG, the switch fluorescence ratio stood at 1.05.

In the case of CTGTTCAGTA, the switch fluorescence ratio turned out to be 0.993.

On to TATAACTCCC, for which the switch fluorescence ratio stood at 1.21.

Consider ATCCGTTCGG, for which the switch fluorescence ratio was determined as 1.04.

On to CATCATGGAT, for which the switch fluorescence ratio was determined as 1.04.

Take ATGCTGAAA: the switch fluorescence ratio was 0.981.

Regarding ATTGTTGTGC, the switch fluorescence ratio was 0.977.

For GCGATTATTC, the switch fluorescence ratio turned out to be 0.971.

TACTCTTCGA: the switch fluorescence ratio worked out at 1.

Regarding CGATGTGTTT, the switch fluorescence ratio worked out at 1.03.

As for CCTCAACCGG, the switch fluorescence ratio stood at 1.32.

As for AGTATAGTTC, the switch fluorescence ratio turned out to be 1.01.

Take TACGCGGGTC: the switch fluorescence ratio is 1.

AAGGTCCTGT: the switch fluorescence ratio came to 0.956.

Take GAATTGTTTC: the switch fluorescence ratio turned out to be 0.994.

Take TTGCACACAC: the switch fluorescence ratio is 1.54.

Consider TTGTGTGAAT, for which the switch fluorescence ratio amounted to 1.01.

Take CTATTAAAA: the switch fluorescence ratio worked out at 0.98.

Turning to TAATCGGTTT, the switch fluorescence ratio stood at 0.977.

For AATCTCCGGG, the switch fluorescence ratio was found to be 1.1.

Consider TCCGTAATTT, for which the switch fluorescence ratio came out at 2.03.

As to TGTATGGTGC, the switch fluorescence ratio was 0.957.

In the case of AGACGTTAGT, the switch fluorescence ratio was found to be 0.951.

As for TTGTGGAGGG, the switch fluorescence ratio worked out at 1.04.

For AAGTATAAAT, the switch fluorescence ratio was determined as 1.02.

Consider TCTGAGTGTA, for which the switch fluorescence ratio turned out to be 0.956.

Regarding TACAATTGTG, the switch fluorescence ratio turned out to be 0.975.

With TTCATAAGTA, the switch fluorescence ratio came to 0.957.

Take CAGAGCATCG: the switch fluorescence ratio stood at 0.986.

For TTAATTTCT, the switch fluorescence ratio came to 1.03.

For CCAGTTGCTG, the switch fluorescence ratio was determined as 0.986.

For the sequence ACGGTTGCAC, the switch fluorescence ratio is 1.08.

Turning to GGCGAGTCCT, the switch fluorescence ratio came to 0.985.

With CTCGCTCAGG, the switch fluorescence ratio is 3.13.

Turning to GGCACAAGTG, the switch fluorescence ratio came to 1.02.

Take CGTTAGATTC: the switch fluorescence ratio stood at 1.03.

Consider TGGCTAATTT, for which the switch fluorescence ratio was 1.03.

In the case of ATATCTTGCC, the switch fluorescence ratio came to 1.02.

As to ACGGGGTCTT, the switch fluorescence ratio is 0.99.

Take CGGGGTTATC: the switch fluorescence ratio came out at 1.35.

Take ACGGATACAA: the switch fluorescence ratio was determined as 1.11.

With GACTCGGGGA, the switch fluorescence ratio came to 0.982.

On to CTCGAGGACG, for which the switch fluorescence ratio amounted to 1.06.

For CCTCCCTTGT, the switch fluorescence ratio was found to be 2.32.

Consider CAAAACGAGA, for which the switch fluorescence ratio was 0.964.

On to TGTAATCCAA, for which the switch fluorescence ratio came out at 1.02.

As for TGAAGTGTTC, the switch fluorescence ratio worked out at 1.04.

Turning to GTTGCGGGG, the switch fluorescence ratio is 0.991.

In the case of TACTCTCGAC, the switch fluorescence ratio is 1.17.

Regarding TTAGCGCAAC, the switch fluorescence ratio stood at 1.34.

With CGGTTAGGTA, the switch fluorescence ratio worked out at 0.984.

CACTAACATG: the switch fluorescence ratio was 1.11.

As for ACTAGTAGTG, the switch fluorescence ratio was found to be 0.981.

As for TGACAGAACA, the switch fluorescence ratio is 1.09.

Take ATAGGTTTCA: the switch fluorescence ratio was found to be 0.981.

With TTTCGTGTT, the switch fluorescence ratio worked out at 1.07.

For GCAGTGTTAC, the switch fluorescence ratio is 1.27.

Regarding CATGTATCAC, the switch fluorescence ratio came out at 0.986.

As for AGTCGAGGAG, the switch fluorescence ratio amounted to 0.972.

Turning to AGTAGTCGTT, the switch fluorescence ratio is 0.973.

As to AGGGCAGTGT, the switch fluorescence ratio came to 1.02.

Turning to GTATGTGGC, the switch fluorescence ratio worked out at 0.927.

On to GGCATGGTCT, for which the switch fluorescence ratio is 0.954.

Regarding TTCGATTCCA, the switch fluorescence ratio is 1.

As for ACCTGAAATG, the switch fluorescence ratio came to 0.997.

Regarding TGCCTTACAC, the switch fluorescence ratio is 1.14.

CAAACCGACT: the switch fluorescence ratio turned out to be 1.53.

On to GGTTAGCAAT, for which the switch fluorescence ratio came out at 2.01.

Consider GTGATTCGCG, for which the switch fluorescence ratio was 1.01.

With CAGCTGCTTA, the switch fluorescence ratio worked out at 0.957.

AACTCTCTGA: the switch fluorescence ratio stood at 1.

Regarding ACACTCCGCT, the switch fluorescence ratio came out at 3.13.

Consider ACTGTTACGT, for which the switch fluorescence ratio amounted to 1.25.

As for GCATGATGA, the switch fluorescence ratio came to 0.985.

Take TCCAAATGGT: the switch fluorescence ratio came out at 0.991.

Regarding CCGTCTTAGT, the switch fluorescence ratio turned out to be 1.01.

AGTTATAGCG: the switch fluorescence ratio was determined as 0.968.

As for GCCGTGAGGG, the switch fluorescence ratio stood at 1.01.

For the sequence TTTTCTTCAT, the switch fluorescence ratio was 1.02.

On to AGCTCATTC, for which the switch fluorescence ratio worked out at 1.02.

As to TCAAGTGGG, the switch fluorescence ratio came out at 1.

In the case of ACTTCTGTGG, the switch fluorescence ratio is 0.996.

Take GGGTTCGGCT: the switch fluorescence ratio stood at 1.08.

With AGGGTTAGAC, the switch fluorescence ratio turned out to be 1.01.

Take TCGGGTACCC: the switch fluorescence ratio stood at 1.02.

Turning to TCGGTGTGTT, the switch fluorescence ratio amounted to 0.974.

As for AACCAATGAT, the switch fluorescence ratio amounted to 0.992.

Consider AGAAAAGTTC, for which the switch fluorescence ratio worked out at 1.12.

As to GCGGTTGGTT, the switch fluorescence ratio came to 1.02.

On to AGTAGCACCC, for which the switch fluorescence ratio was found to be 1.04.

Consider CACTTCCCCA, for which the switch fluorescence ratio turned out to be 1.26.

Turning to CCTTCCAGAG, the switch fluorescence ratio was 2.87.

As for TTTTACGAGG, the switch fluorescence ratio was determined as 1.01.

Turning to CCCGCTTTCA, the switch fluorescence ratio was determined as 1.24.

Regarding TACAGGAAGG, the switch fluorescence ratio is 0.979.

TGAATATTTA: the switch fluorescence ratio was 0.977.

Take ACCAATCGAA: the switch fluorescence ratio was determined as 1.05.

On to GGCTCGCCTA, for which the switch fluorescence ratio is 0.951.

Consider TGACACATGT, for which the switch fluorescence ratio worked out at 1.04.

As for GACTAACTCA, the switch fluorescence ratio came out at 1.08.

As for TATGGCTTGG, the switch fluorescence ratio worked out at 1.

As for CGACGTAACC, the switch fluorescence ratio came out at 2.46.

As for TCGTCCACTT, the switch fluorescence ratio was 1.03.

TAAAGCTCTT: the switch fluorescence ratio was 0.95.

As for ATTAGTTTAA, the switch fluorescence ratio came to 0.946.

In the case of CTTCAGACTG, the switch fluorescence ratio came out at 1.09.

In the case of GGCCTACTTG, the switch fluorescence ratio worked out at 0.973.

With TATATGCGTA, the switch fluorescence ratio stood at 1.01.

Take GAAAAGGTGA: the switch fluorescence ratio stood at 0.967.

With GCTGATCGGG, the switch fluorescence ratio came to 0.994.

With GATTAAACGA, the switch fluorescence ratio came out at 0.994.

For the sequence CGCCAACGAG, the switch fluorescence ratio was found to be 1.16.

Consider GTGCTAGACT, for which the switch fluorescence ratio was determined as 1.01.

Take ACAGAAACCC: the switch fluorescence ratio worked out at 1.1.

As for AATATATAGG, the switch fluorescence ratio came to 1.02.

The record behind these values is the supplement of paper PMC10126150.
